These results are taken from PubChem BioAssay AID1508624 (National Center for Advancing Translational Sciences (NCATS), 2021).

Screen size: about 48,000 compounds; about 120 (0.25%) were called active. About 4% were inconclusive and are not listed. The call rests on the fitted dose curve; in most records, active means well fitted activation curve with a large enough effect; inconclusive means small, poorly fitted or top-dose-only effect, or another doubt; inactive means no such curve, though single readings can be large or run the other way. Some of the results follow.

This assay in a line: Primary qHTS for Identification of Small Molecule Activators of Huntingtin-Antisense Promoter Activity. Further: nearly all actives have a fitted effect of over 55% in size. The settings on record: HEK293 HTT-AS promoter firefly luciferase reporter (activity 0% = vehicle and -100% = no light), 24 h; series mostly up to 57.5 µM; activity change, positive = activation: at the top concentration. The essentials: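 Firefly luciferase readout (Dual-Glo, 10 min RT) after 24 h, 37 °C compound exposure (final up to 57.5 uM) of HEK293 reporter cells cultured 24 h beforehand; PTC124 at 50 uM final as control inhibitor; activity scaled vehicle 0%, zero RLU -100%.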
As to `Cc1cc(NC(=O)CN(c2cccc(C)c2C)S(=O)(=O)c2ccccc2)ccc1Br`, the “activity change, positive = activation” value was inactive: -38.8%.
Consider `CCCOc1ccc(CNC(=O)C2CCN(c3nn4c(=O)cc(C)nc4s3)CC2)cc1`, for which the “activity change, positive = activation” value was inactive: -11.2%.
The result for `COc1ccc(CCC(=O)NCc2ccc3c(c2)CCN3C(=O)c2cccc(C)c2)cc1` reads inactive: -69.7%; that for `CC(NC(=O)c1cc2sccc2n1Cc1ccc(F)cc1)c1ccccc1` (centres undefined), inactive: -20.6%.
The result for `COc1ccc(C(=O)Nc2ccc(-c3cc(C(F)(F)F)nn3-c3ccccc3)cc2)cc1OC` reads inactive: -33.5%; that for `CCc1cccc(C)c1NS(=O)(=O)c1ccc(-n2cccn2)cc1`, inactive: -39.1%; that for `CC(=O)N1CCCc2cc(S(=O)(=O)NCc3ccc(OC(C)C)cc3)ccc21`, inactive: -20.1%.
For `COc1ccc(-c2nn(-c3ccc(F)cc3F)c3c2cnc2ccc(F)cc23)cc1`, the “activity change, positive = activation” value is inactive: -6.24%.
The result for `CCOc1ccc(-c2nonc2NC(=O)c2oc3cc(Br)ccc3c2C)cc1` reads inactive: -32.7%; that for `COc1cc(C2CC(=O)Nc3cc4c(cc32)OCCO4)cc(OC)c1O` (centres undefined), inactive: -24.9%.
With `Nc1ccn(C2CO[C@H](CO)O2)c(=O)n1` (some centres undefined) the figure was inactive: -6.68%; with `O=c1[nH]c2cc(C(F)(F)F)c(N3CCOCC3)cc2n(CP(=O)(O)O)c1=O`, inactive: -5.84%.
With `CCCCC(=O)Nc1ccc(OCc2cc(=O)n3ccc(C)cc3n2)cc1` the figure was inactive: -5.87%; with `CCCCN(CCCC)c1nc(-c2ccccc2)nc2ccccc12`, inactive: -29.9%.
For the compound `COc1ccc(C(Cl)=C(c2ccc(OC)cc2)c2ccc(OC)cc2)cc1`, the “activity change, positive = activation” value is inactive: -5.93%.
With `Cc1oc(-c2cccc(Cl)c2)nc1CSCC(=O)O` the figure was inactive: -17.3%; with `CCN(C(=O)c1cc2c(Cl)nc3ccc(C)cc3c2s1)c1cc(OC)ccc1OC`, inactive: -12.9%.
The result for `CCC(=O)Nc1ccc(C)cc1-c1nc2ccccc2n(Cc2ccccc2)c1=O` reads inactive: -11.6%; that for `CC1(c2ccccc2)CC(C)(C)N(C(=O)c2ccccc2Cl)c2ccccc21` (centres undefined), inactive: -39%.
Regarding `COc1ccccc1C(=O)Nc1c(C(=O)Nc2ccc(C)cc2)oc2ccccc12`, the “activity change, positive = activation” value is inactive: 0.772%.
With `CCOC(=O)c1c(N)sc2c1CCN(Cc1ccccc1)C2` the figure was inactive: -2.37%; with `COc1ccc(NC(=O)C2CCCN2S(=O)(=O)c2ccc3c(c2)CCCC(=O)N3)cc1Cl` (centres undefined), inactive: -24.6%; with `CCOC(=O)c1[nH]c(C)c(C(=O)NCc2ccc(F)cc2)c1C`, inactive: 0%.
With `COc1cc(CNCCSc2nnnn2C)ccc1OCc1c(F)cccc1Cl` the figure was inactive: -15.4%; with `Cc1cccc(-c2nnc(SCCC(=O)O)o2)c1`, inactive: -91%.
For the compound `CCOc1ccc(CCNC(=O)c2cnc3c(-c4ccccc4)c(C)nn3c2C)cc1OCC`, the “activity change, positive = activation” value was inactive: -5.01%.
The result for `Cc1cccc(NC(=O)CN2C(=O)CCc3ccccc32)c1C` reads inactive: -26.5%; that for `COc1ccc(N2CCN(c3oc(/C=C/c4cccc(OC)c4)nc3C#N)CC2)cc1`, inactive: -6.57%; that for `CCc1ccc(CNC(=O)C2CCN(c3nnc(-n4c(C)ccc4C)s3)CC2)cc1`, inactive: -22.1%.
As for `CC(C)c1ccc(OCC(=O)Nc2cc(-c3nc4ncccc4o3)ccc2Cl)cc1`, the “activity change, positive = activation” value is inactive: -15.3%.
With `O=[N+]([O-])c1ccc(C(c2sc3nc(-c4ccco4)nn3c2O)N2CCC3(CC2)OCCO3)cc1` (centres undefined) the figure was inactive: -1.78%; with `O=C(O)c1cccnc1Nc1cccc(C(F)(F)F)c1`, “inactive”; with `COc1ccccc1CNC(=O)C(C)n1c(=O)cc(C(F)(F)F)c2c(C)nn(C)c21` (centres undefined), inactive: -11.3%.
With `CCOc1ccc(CCNC(=O)c2sc3nc4n(c(=O)c3c2C)CCCC4)cc1` the figure was inactive: -10.5%; with `O=C(O)Cn1nc(N2CCN(c3ccccc3)CC2)ccc1=O`, inactive: 3.09%.
With `Cc1sc2c(c1C)c(=O)n(Cc1ccccc1)c(=O)n2CC(=O)Nc1cccc(Cl)c1` the figure was inactive: -15.2%; with `Cc1ccccc1C(=O)NCc1ccc2c(c1)CCN2C(=O)c1ccc(F)cc1`, inactive: -10.4%.
Take `CC1CCC(NC(=O)CCc2cn(Cc3ccc(F)cc3)c3ccccc23)CC1` (centres undefined): the “activity change, positive = activation” value is inactive: -4.92%.
With `COc1ccc(NC(=O)c2nc(S(=O)(=O)Cc3ccc(C)cc3)ncc2Cl)cc1` the figure was inactive: -28.6%.
On to `Cc1nn2c(=O)cc(COC(=O)COc3ccccc3C)nc2s1`, for which the “activity change, positive = activation” value was inactive: 1.35%.
With `O=C(O)C1=CC(c2ccc(Br)cc2)n2ncnc2N1` (centres undefined) the figure was inactive: 1.99%.
With `O=C(CCS(=O)(=O)c1nc(-c2cccs2)cc(C(F)(F)F)n1)Nc1cccc(O)c1` the figure was inactive: -94.2%.
The result for `COc1ccccc1CNC(=O)c1cc(-c2ccccc2)n[nH]1` reads inactive: -0.262%; that for `CCc1ccc(S(=O)(=O)c2cnc(SCC(=O)Nc3ccc(OC)cc3OC)[nH]c2=O)cc1`, inactive: 22%; that for `Cc1ccc2nc(NC(=O)CSc3ncc(C(=O)Nc4ccccc4)c(=O)n3C)sc2c1`, inactive: 14.3%.
For the compound `CCOc1ccccc1N(CC)C(=O)c1cc2ccc3cccnc3c2[nH]1`, the “activity change, positive = activation” value was inactive: -2.51%.
As to `Cn1c2ccc(F)cc2c2nnc(SCCN3CCCCC3)nc21`, the “activity change, positive = activation” value was inactive: -13.6%.
On to `CC(C)NC(=O)c1sc2ncccc2c1-n1cccc1`, for which the “activity change, positive = activation” value is inactive: 7.94%.
With `O=C(COc1ccc(Br)cc1)Nc1cccc2cccnc12` the figure was inactive: 16.3%.
